# Laboratory results: PubChem BioAssay AID1745845 (National Center for Advancing Translational Sciences (NCATS), 2022)
# In all, about 360,000 compounds went through this assay and about 2,600 (0.72%) were called active. Inconclusive results, whose numbers are uncertain, are shown with a selection of clear calls. Calls follow the shape of the dose curve; as a rule, active = well fitted inhibition curve with a large enough effect; inconclusive = small, poorly fitted or top-dose-only effect; inactive = no such curve, though single readings can be large or run the other way. Potencies beside an inconclusive call are fits to weak or partial responses and may not hold up.
# Experiment: Primary qHTS for Inhibitors of ATXN expression; also: nearly all actives have a fitted effect of over 55% in size
# Conditions: HEK-293 ATXN2-luciferase reporter, luminescence, 24 h; activity change, negative = inhibition: at 57 µM (top of the series)
# Summary of the method: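 qHTS (up to 57 uM final) was run with 24 h compound exposure of reporter cells at 37 °C. Each well was multiplexed: SteadyGlo luminescence measured ATXN2-luciferase expression after a fluorogenic Gly-Phe-AFC viability readout (25 uM final).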
# % is scaled to controls: 0 for no effect and ±100 for the full control effect; potency is read from the fitted curve at half-maximal effect; tags tell the direction and shape of the fitted curve.
SMILES,"activity change, negative = inhibition",Potency
Cc1ccc(CN2C3CCCC2CC(NC(=O)Nc2cccc(F)c2)C3)cc1 (stereo not drawn),inactive: -12.5%,–
O=C1NC(=S)N(c2ccccc2)C(=O)/C1=C/c1ccco1,–,"inconclusive: 3.55 µM [inhibitor, single point]"
Cc1nc2ccccc2c(=O)n1-c1ccc(-c2ccccc2)cc1,–,"inconclusive: 28.2 µM [inhibitor, single point]"
Fc1ccc(C2=CCN(C(c3cccs3)c3nnnn3CCc3ccccc3)CC2)cc1 (stereo not drawn),–,"inconclusive: 39.8 µM [inhibitor, single point]"
COc1cccc(C2C([N+](=O)[O-])=C(N)Oc3c2c(=O)oc2ccccc32)c1 (stereo not drawn),–,"inconclusive: 39.8 µM [inhibitor, partial curve, poor fit]"
CCC(C)(O)C(=O)OC1C(=O)OC2CC3C(C)=CC(=O)C(O)C3(C)C3C4(O)OCC23C1C(C)C4O (stereo not drawn),–,active: 0.168 µM
CC(C)(C)c1ccc(CN2C(=O)CN=C(c3ccccc3)c3ccccc32)cc1,–,"inconclusive: 39.8 µM [inhibitor, single point]"
C=CCn1c(O)c(C(CC)=NCCc2c[nH]c3ccccc23)c(=O)[nH]c1=O,inactive: -35%,–
Cc1ccsc1C(=O)C1CCCN(Cc2cc(C(C)C)n[nH]2)C1 (stereo not drawn),inconclusive: -42% [inhibitor],–
Nc1ccc(Br)cc1,–,"inconclusive: 15.8 µM [inhibitor, partial curve, poor fit]"
O=C(NN=Cc1ccc(N(CCCl)CCCl)cc1)c1cccc([N+](=O)[O-])c1,–,"inconclusive: 12.6 µM [inhibitor, partial curve]"
O=C1NCN(c2ccccc2)C12CCN(C(c1cccs1)c1nnnn1C1CCCC1)CC2 (stereo not drawn),–,"inconclusive: 39.8 µM [inhibitor, partial curve, poor fit]"
N#Cc1cc2c(nc1SCC(=O)Nc1cc(Cl)ccc1Cl)C1CCN2CC1,–,"inconclusive: 39.8 µM [inhibitor, single point]"
Fc1ccc(C(OCCN2CCCC2)c2ccc(Br)cc2)cc1 (stereo not drawn),inactive: -23.3%,–
Nc1c2c(nc3sc4c(c13)CCCC4)CCCC2,–,"inconclusive: 39.8 µM [inhibitor, single point]"
CN1CN(c2ccccc2)C2(CCN(CCCSc3ccccc3NC(=O)/C=C/c3ccccc3)CC2)C1=O,–,"inconclusive: 35.5 µM [inhibitor, single point]"
CCN(CC)Cc1nccn1-c1ccc([N+](=O)[O-])cc1C(=O)c1ccccc1Cl,inactive: -12.8%,–
NC(=O)c1cn(C2OC(CO)C(O)C2O)c2ncnc(N)c12 (stereo not drawn),–,"inconclusive: 0.316 µM [inhibitor, full curve, poor fit]"
